Experimental findings from US20200231681A1 are described below.

In experiment [1] the target is human FGF R3 (IIIc) Fc chimera (R&D systems, 766-FR) (human) (UniProt P22607). Briefly: indirect ELISA, hu8C4 at 0.240 nM.
The target is the same in experiment [2]. The experiment in a line: indirect ELISA, hu8C4 at 1.200 nM.
For experiment [3] the target is unchanged. The experiment in a line: indirect ELISA, hu8C4 at 6.000 nM.

The source holds more than one record for some entries. They are shown here; other results are not. The source may hold further records. The values listed for one entry appear to be repeats on other runs, samples or individuals.

B1: hu8C4 (IgG1 humanized antibody having a hinge region of SEQ ID NO: 38 in hu8C4-1) (antibody, V domains shown)
VH: EVQLVESGGGLVQPGGSLRLSCAASGYTFSDYYINWVRQAPGKGLEWIGEIFPGSGNTHFSARFKGRATLSADKSKNTAYLQMNSLRAEDTAVYYCAGGDYGFLYWGQGTLVTVSS
VL: DIQMTQSPSSLSASVGDRVTITCGASENIYGALNWYQQKPGKAPKLLIYGATNLADGVPSRFSGSGSGRDFTFTISSLQPEDIATYYCQNVLSSPYTFGQGTKVEIK
As for B1, the A450 nm-A570 nm (A450 nm-A570 nm) is -0.01 and 0 [columns of one line] in experiment [1]; 0 and 0.01 [columns of one line] in experiment [2]; 0 and 0.01 [columns of one line] in experiment [3].
